# Reference: article PMC9911399, “Two distinct binding modes provide the RNA-binding protein RbFox with extraordinary sequence specificity”
# Residue numbers refer to the chain shown, from its start. This is one part of the list.
# T1: RBFOX1 RRM (Homo sapiens, UniProt Q9NWB1 109-208)
# T1 sequence: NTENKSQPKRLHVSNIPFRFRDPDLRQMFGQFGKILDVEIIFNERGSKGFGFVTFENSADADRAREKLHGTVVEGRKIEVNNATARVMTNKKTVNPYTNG
# B1: UCCUUAU (DNA:RNA)
# RNA: GGGAGACCGGAAUUCAGAUUGUCCUCCUUAUUUAAAUCCCGUCGUAGCCACCA
# DNA 1: CAATCTGAATTCCGGTCTCCC
# DNA 2: TGGTGGCTACGACGGGATT
# B2: CCGGGAA (DNA:RNA)
# RNA: B1 RNA with U25C, C27G, U28G, U29G, U31A
# DNA 1: CAATCTGAATTCCGGTCTCCC
# DNA 2: TGGTGGCTACGACGGGATT
# B3: UGCGAUA (DNA:RNA)
# RNA: B1 RNA with C26G, U28G, U29A, A30U, U31A
# DNA 1: CAATCTGAATTCCGGTCTCCC
# DNA 2: TGGTGGCTACGACGGGATT
# B4: AAACUCU (DNA:RNA)
# RNA: B1 RNA with U25A, C26A, C27A, U28C, A30C
# DNA 1: CAATCTGAATTCCGGTCTCCC
# DNA 2: TGGTGGCTACGACGGGATT
# B5: AUUUAUG (DNA:RNA)
# RNA: B1 RNA with U25A, C26U, C27U, U29A, A30U, U31G
# DNA 1: CAATCTGAATTCCGGTCTCCC
# DNA 2: TGGTGGCTACGACGGGATT
# B6: GUAGUGA (DNA:RNA)
# RNA: B1 RNA with U25G, C26U, C27A, U28G, A30G, U31A
# DNA 1: CAATCTGAATTCCGGTCTCCC
# DNA 2: TGGTGGCTACGACGGGATT
# B7: UCCUAAA (DNA:RNA)
# RNA: B1 RNA with U29A, U31A
# DNA 1: CAATCTGAATTCCGGTCTCCC
# DNA 2: TGGTGGCTACGACGGGATT
# B8: UGCGAUU (DNA:RNA)
# RNA: B1 RNA with C26G, U28G, U29A, A30U
# DNA 1: CAATCTGAATTCCGGTCTCCC
# DNA 2: TGGTGGCTACGACGGGATT
# B9: GGCGGCA (DNA:RNA)
# RNA: B1 RNA with U25G, C26G, U28G, U29G, A30C, U31A
# DNA 1: CAATCTGAATTCCGGTCTCCC
# DNA 2: TGGTGGCTACGACGGGATT
# Molecular target: T1, RBFOX1 RRM
# Assay: EMSA; HiTS-Eq, 1 nM pool, 10 min; buffer printed only for the single-RNA assays: 10 mM Tris pH 7.5, 150 mM NaCl, 3.4 mM EDTA, 0.001% NP-40, 30 C
# Conditions: tags: His6 N-terminal (pET28a); label: 5' 32P
# In short: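 Purified RbFox RRM (wild type or mutant) was equilibrated for 10 min in 50 µL with 1 nM of a 5′-radiolabelled pool of RNA with 7 randomized nucleotides, its flanks annealed to DNA oligonucleotides, across increasing protein concentrations. Free RNA was separated by 8% native PAGE, excised, reverse-transcribed, PCR-barcoded and sequenced on an Illumina HiSeq 2500. Relative association constants came from read-count changes of each variant against the control reaction, normalised to the cognate motif.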
row,Binder,binding signal
1,B1,0.00181 KA relative to UGCAUGU
2,B2,0.0136 KA relative to UGCAUGU
3,B3,0.017 KA relative to UGCAUGU
4,B4,0.0013 KA relative to UGCAUGU
5,B5,0.0107 KA relative to UGCAUGU
6,B6,0.0104 KA relative to UGCAUGU
7,B7,0.00271 KA relative to UGCAUGU
8,B8,0.0215 KA relative to UGCAUGU
9,B9,0.0254 KA relative to UGCAUGU
